Measurements published in article PMC4981022.
Results are given in words; binding and its absence hold for the method and conditions named. Binding seen in cells or lysates may run through a third protein. Some binding calls cover weakened binding; strength is not graded here. Where a sequence is shown, tags or fusion partners need not be part of it. Blank lines part the entries; values can stand above or below the molecule they belong to.

By UniProt entry, the sequences of proteins in these tests, tags left out. Where a name states a change or a piece, a line headed by the entry shows the natural chain unless it says otherwise.
UniProt O75865: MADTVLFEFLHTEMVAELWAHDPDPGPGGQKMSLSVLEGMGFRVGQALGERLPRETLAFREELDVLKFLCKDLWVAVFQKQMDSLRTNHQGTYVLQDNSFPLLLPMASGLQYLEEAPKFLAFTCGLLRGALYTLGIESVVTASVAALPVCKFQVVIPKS

Tests used:
EYFP-WWOX [1] = molecular target: T1, EYFP-WWOX (UniProt Q9NZC7); test: FRET or BRET; time-lapse FRET microscopy of living COS7 cells co-transfected with ECFP- and EYFP-tagged constructs, in the presence of TGF-β1 (5 ng/ml)
T1 sequence: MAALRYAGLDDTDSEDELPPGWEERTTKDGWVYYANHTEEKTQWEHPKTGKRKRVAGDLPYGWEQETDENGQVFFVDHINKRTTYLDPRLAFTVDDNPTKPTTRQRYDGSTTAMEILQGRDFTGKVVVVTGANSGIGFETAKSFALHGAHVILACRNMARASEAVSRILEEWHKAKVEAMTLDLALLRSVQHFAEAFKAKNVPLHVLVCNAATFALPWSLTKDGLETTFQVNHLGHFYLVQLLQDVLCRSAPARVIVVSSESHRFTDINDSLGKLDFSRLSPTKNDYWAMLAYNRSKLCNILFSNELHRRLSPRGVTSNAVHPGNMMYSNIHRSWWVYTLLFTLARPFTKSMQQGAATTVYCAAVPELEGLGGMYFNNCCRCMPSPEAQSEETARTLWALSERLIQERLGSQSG

EYFP-WWOX [2] = molecular target: T1, EYFP-WWOX; test: FRET or BRET; FRET microscopy of living COS7 cells co-transfected with ECFP- and EYFP-tagged constructs, without stimulation; excitation 440 nm, emission 535 nm; binding given as FRETc
[3] = molecular target: T2, WW domains of WWOX (aa 1-95), ECFP tag (UniProt Q9NZC7); test: FRET or BRET; time-lapse FRET microscopy of living COS7 cells co-transfected with ECFP- and EYFP-tagged constructs, in the presence of TGF-β1 (5 ng/ml)
T2 sequence: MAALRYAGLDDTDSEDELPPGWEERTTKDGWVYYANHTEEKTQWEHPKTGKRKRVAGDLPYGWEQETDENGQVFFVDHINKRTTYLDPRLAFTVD

[4] = molecular target: T3, C-terminal SDR domain/D3 tail of WWOX (aa 120-414), ECFP tag (UniProt Q9NZC7); test: as above
T3 sequence: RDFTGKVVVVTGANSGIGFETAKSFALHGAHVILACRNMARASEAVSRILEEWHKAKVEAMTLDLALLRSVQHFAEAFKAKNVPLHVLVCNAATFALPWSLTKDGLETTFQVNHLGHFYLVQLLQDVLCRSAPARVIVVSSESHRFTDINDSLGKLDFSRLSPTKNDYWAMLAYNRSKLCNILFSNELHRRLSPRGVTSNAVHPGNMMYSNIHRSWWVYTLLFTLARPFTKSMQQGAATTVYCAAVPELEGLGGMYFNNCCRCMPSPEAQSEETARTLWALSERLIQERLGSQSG

ECFP-WWOX [5] = molecular target: T4, ECFP-WWOX (UniProt Q9NZC7); test: FRET or BRET; FRET microscopy of living COS7 cells co-transfected with ECFP- and EYFP-tagged constructs, without stimulation; excitation 440 nm, emission 535 nm; binding given as FRETc
T4 sequence: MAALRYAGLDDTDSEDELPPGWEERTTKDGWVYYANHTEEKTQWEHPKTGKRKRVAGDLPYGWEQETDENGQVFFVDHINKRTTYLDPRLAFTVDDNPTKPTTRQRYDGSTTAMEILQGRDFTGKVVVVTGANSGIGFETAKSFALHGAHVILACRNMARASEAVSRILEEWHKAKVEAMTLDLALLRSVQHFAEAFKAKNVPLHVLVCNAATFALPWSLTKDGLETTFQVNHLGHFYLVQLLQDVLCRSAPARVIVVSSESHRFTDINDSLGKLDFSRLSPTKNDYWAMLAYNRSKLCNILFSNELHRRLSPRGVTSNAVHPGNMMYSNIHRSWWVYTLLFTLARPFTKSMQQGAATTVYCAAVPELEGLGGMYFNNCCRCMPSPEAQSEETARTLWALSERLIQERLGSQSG

[6] = molecular target: T2, WW domains of WWOX (aa 1-95), ECFP tag; test: as above
[7] = molecular target: T3, C-terminal SDR domain/D3 tail of WWOX (aa 120-414), ECFP tag; test: as above
ECFP-WWOX [8] = molecular target: T4, ECFP-WWOX; test: FRET or BRET; time-lapse FRET microscopy of living COS7 cells co-transfected with ECFP- and EYFP-tagged constructs, in the presence of TGF-β1 (5 ng/ml)
ECFP-TPC6AΔ (human) = ECFP-TPC6AΔ (human) (UniProt O75865); test: FRET or BRET; FRET microscopy of living COS7 cells co-transfected with ECFP- and EYFP-tagged constructs, without stimulation; excitation 440 nm, emission 535 nm; binding given as FRETc

Molecule: ECFP-TPC6AΔ (from UniProt O75865-1 1-159)
- binding (EYFP-WWOX [1]): binds
- binding (EYFP-WWOX [2]): binds weakly

Molecule: EYFP-TPC6AΔ (from UniProt O75865-1 1-159)
- binding [3]: binds
- binding [4]: binds
- binding (ECFP-WWOX [5]): binds
- binding [6]: no binding (condition: without TGF-β1 stimulation)
- binding [7]: binds

The remaining lines, values ahead:

- binding (ECFP-WWOX [8]): binds
Molecule: EYFP-TPC6AΔ(S35G) (from UniProt O75865-1 1-159)

- binding (ECFP-TPC6AΔ (human)): binds
B1: EYFP-TIAF1 (protein, UniProt O95411 1-115)
chain: MSSPSSPFREQSFLCAAGDAGEESRVQVLKNEVRRGSPVLLGWVEQAYADKCVCGPSAPPAPTPPSLSQRVMCNDLFKVNPFQLQQFRADPSTASLLLCPGGLDHKLNLRGKAWG
